The values that follow come from PubChem BioAssay AID1508624 (National Center for Advancing Translational Sciences (NCATS), 2021).

Among all 48,000 compounds or so, about 120 (0.25%) were called active. Not shown: some 4% with an inconclusive outcome. Calls follow the shape of the dose curve; as a rule, active = well fitted activation curve with a large enough effect; inconclusive = small, poorly fitted or top-dose-only effect, or another doubt; inactive = no such curve, though single readings can be large or run the other way. The list shows a part of the results.

This assay is described as follows: Primary qHTS for Identification of Small Molecule Activators of Huntingtin-Antisense Promoter Activity. Also: nearly all actives have a fitted effect of over 55% in size. Conditions: HEK293 HTT-AS promoter firefly luciferase reporter (activity 0% = vehicle and -100% = no light), 24 h; series mostly up to 57.5 µM; activity change, positive = activation: at the top concentration. The method in brief: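 Firefly luciferase signal from promoter-reporter HEK293 cells was scaled between vehicle (0%) and zero RLU (-100%). Compounds were tested at final concentrations of up to 57.5 uM over 24 h at 37 degrees C. PTC124 at 50 uM final served as control inhibitor.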
Background: qHTS replaces the single test concentration by a dilution series.
Turning to `O=S(=O)(NCCc1csc2nc(-c3ccccc3)nn12)c1cccs1`, the “activity change, positive = activation” value is inactive: -32%.

On to `Cc1ccc(OCc2nc(-c3ccc(C(=O)NCCc4ccc(Cl)cc4)cc3)oc2C)cc1`, for which the “activity change, positive = activation” value is inactive: 2.43%.

Regarding `Cc1ccc(NC(=O)CN2C(=O)CCc3ccccc32)cc1C`, the “activity change, positive = activation” value was inactive: -17.6%.

In the case of `COc1ccc(NC(=O)c2nn(C)c3c2CS(=O)(=O)c2ccccc2-3)cc1Cl`, the “activity change, positive = activation” value is inactive: -14.7%.

For the compound `Cc1ccccc1CN1C(=O)c2ccccc2Sc2ccc(C(=O)NC3CCCCC3)cc21`, the “activity change, positive = activation” value is inactive: -8.18%.

On to `COc1ccc(N(CC(=O)NC(C)c2ccccc2)S(=O)(=O)c2c(C)nn(C)c2C)cc1` (configuration not stated), for which the “activity change, positive = activation” value was inactive: -14%.

Regarding `COc1ccc(N2CCN(Cc3nc4c(c(=O)[nH]c(=O)n4C)n3Cc3ccc(C)cc3)CC2)cc1`, the “activity change, positive = activation” value is inactive: -19.3%.

For `CCOC(=O)c1c(C)[nH]c(C)c1S(=O)(=O)N1CCCC(C(=O)N2CCN(c3ccccc3F)CC2)C1` (configuration not stated), the “activity change, positive = activation” value is inactive: 0%.

`CCc1nn(CC(=O)N2CCN(c3cccc(OC)c3)CC2)c(=O)c2cc3occc3n12`: the “activity change, positive = activation” value was inactive: -5.25%.

For the compound `CCCSc1oc(-c2ccco2)nc1S(=O)(=O)c1ccc(Br)cc1`, the “activity change, positive = activation” value is inactive: -18%.

Regarding `COCCCNC(=O)Cn1nc(N2CCN(c3ccccc3)CC2)ccc1=O`, the “activity change, positive = activation” value was inactive: -14.6%.

For `Cn1c(-n2cccc2)c(-c2c(-c3ccc(F)cc3)[nH]c3c2c(=O)n(C)c(=O)n3C)c(=O)n(C)c1=O`, the “activity change, positive = activation” value was inactive: -6.45%.

With `COCCn1ccc2c(OCC(=O)Nc3c(C)cc(C)cc3C)cccc2c1=O`, the “activity change, positive = activation” value is inactive: -14.6%.

Regarding `Cc1ccc(S(=O)(=O)n2nc(-c3ccc(Cl)cc3)nc2NCc2ccccc2)cc1`, the “activity change, positive = activation” value was inactive: -2.18%.

With `CN(C)CC/C=C1\c2ccccc2COc2ccccc21`, the “activity change, positive = activation” value was inactive: -14.4%.

As for `CC1CCc2c(sc3nnn(Cc4cccc(C(=O)OC(C)C)c4)c(=O)c23)C1` (configuration not stated), the “activity change, positive = activation” value was inactive: -2.91%.

For the compound `CC(=O)N1CCc2c(sc3c2c(=O)n(-c2ccc(F)cc2)c(=O)n3Cc2ccc(C#N)cc2)C1`, the “activity change, positive = activation” value is inactive: -10.8%.

On to `CCOc1ccccc1CNC(=O)C1CCN(S(=O)(=O)c2c(C)noc2/C=C/c2ccccc2F)CC1`, for which the “activity change, positive = activation” value was inactive: 12.4%.

Take `CCn1c(C(=O)NCc2ccccc2OC)cc2sccc21`: the “activity change, positive = activation” value is inactive: 2.76%.

For `COc1ccc(CC(=O)Nc2cc(-c3cn4cccnc4n3)ccc2C)cc1OC`, the “activity change, positive = activation” value is inactive: -36.8%.

`CC1=C(c2ccc(C(C)C)cc2)S(=O)(=O)N=C1N1CCC(C(=O)NCc2ccccc2)CC1`: the “activity change, positive = activation” value was inactive: -19.8%.

Turning to `COc1ccc(-n2ccnc(NCc3cccs3)c2=O)cc1OC`, the “activity change, positive = activation” value was inactive: -12.9%.

With `O=S(c1cc(Cl)cc(Cl)c1O)c1cc(Cl)cc(Cl)c1O`, the “activity change, positive = activation” value is inactive: -4.76%.

`CC(Oc1c(Cl)cccc1Cl)C1=NCCN1` (configuration not stated): the “activity change, positive = activation” value is inactive: -2.27%.

With `COc1cccc2c1cc1c(=O)n(CC(=O)N3CCN(c4cccc(C(F)(F)F)c4)CC3)nc(C)n12`, the “activity change, positive = activation” value was inactive: -19.9%.

For `CCOc1ccccc1NC(=O)C(CC(C)C)NC(=O)C1CCC(C)CC1` (configuration not stated), the “activity change, positive = activation” value is inactive: -18.9%.

Turning to `CCCCN(CC)C(=O)CSc1nc2n[nH]c(C)c2c(=N)n1-c1cccc(C)c1`, the “activity change, positive = activation” value was inactive: -49.9%.

As for `O=C(COc1ccccc1Cl)Nc1nnc(S(=O)(=O)N2CCCC2)s1`, the “activity change, positive = activation” value was inactive: -6.78%.

In the case of `Cc1ccc(NC(=O)CCc2c(C)nn(-c3ccc(N4CCOCC4)nn3)c2C)c(C)c1`, the “activity change, positive = activation” value was inactive: -6.64%.

As for `COc1ccc(-n2nc3ccc(NC(=O)c4ccc(C#N)cc4F)cc3n2)cc1Cl`, the “activity change, positive = activation” value is inactive: 5.9%.

Consider `O=C(Nc1cccc(C(F)(F)F)c1)c1cc(-c2ccc(Cl)s2)nc2ccccc12`, for which the “activity change, positive = activation” value was inactive: -11.3%.

For `O=C(O)Cn1c(-c2cccs2)cc2cc(Cl)ccc21`, the “activity change, positive = activation” value is inactive: -5.93%.

As to `COc1ccc(Cn2c(CO)cnc2SCC(=O)Nc2ccc3c(c2)OCCO3)cc1`, the “activity change, positive = activation” value was inactive: -7.98%.

Take `COc1cccc(COC(=O)c2ccc(-c3nnn(Cc4cccc(OC)c4)n3)cc2)c1`: the “activity change, positive = activation” value is inactive: 8.17%.

Regarding `CCOc1ccc(NC2SC(=O)N(Cc3ccccc3)C2=O)cc1` (configuration not stated), the “activity change, positive = activation” value is inactive: -5.95%.

For `COc1cccc2sc(NC(=O)CS(=O)(=O)c3ccc(C)cc3)nc12`, the “activity change, positive = activation” value is inactive: -10.8%.

With `O=c1[nH]c(=O)n([C@H]2C[C@@H](O)[C@@H](CO)O2)cc1C(F)(F)F`, the “activity change, positive = activation” value is inactive: -19.5%.

As for `CC(C)Oc1ccc(CNC(=O)c2ccc3nc(SCc4ccc(F)cc4)n(C)c3c2)cc1`, the “activity change, positive = activation” value was inactive: -20.3%.

Turning to `Cc1ccccc1Cn1c(C)c(CNCc2ccccc2)c(C(=O)O)c1C`, the “activity change, positive = activation” value was inactive: -10.9%.

In the case of `CC(NC(=O)c1ccc2nc(CCc3ccccc3)oc2c1)c1ccccc1` (configuration not stated), the “activity change, positive = activation” value is inactive: 8.51%.

For `O=C(Nc1ccc2oc(-c3cccnc3)nc2c1)c1ccc(-c2cccc(OC(F)(F)F)c2)o1`, the “activity change, positive = activation” value is inactive: -24.9%.

In the case of `COc1cccc(N2CCN(C(=O)c3ccc(CS(=O)c4cccc(Cl)c4)o3)CC2)c1` (configuration not stated), the “activity change, positive = activation” value was inactive: -37.6%.

Turning to `O=C(NCCc1ccc(Cl)cc1)c1ccc2c(c1)N(Cc1ccccc1)CCS2`, the “activity change, positive = activation” value was inactive: 4.65%.

Regarding `COc1ccc(NC(=O)c2nc(SCc3ccccc3F)ncc2Cl)cc1`, the “activity change, positive = activation” value is inactive: 0.685%.

With `Cc1ccc(C)c(NC(=O)CCc2c(C)n(C)c3cc(-c4ccccc4C)nn3c2=O)c1`, the “activity change, positive = activation” value was inactive: -24%.

Regarding `COc1ccc(NC(=O)CN(C)S(=O)(=O)c2ccc3[nH]c4c(c3c2)CCCC4)cc1OC`, the “activity change, positive = activation” value is inactive: -26.1%.

On to `CCCCOc1ccc(S(=O)(=O)n2nc(C)c(S(=O)(=O)N3CCC(C)CC3)c2C)cc1`, for which the “activity change, positive = activation” value was inactive: -3.24%.
